The other results are listed elsewhere or left out.

The test system of this assay is PfAP2-HC AP2 domain (GST-tagged). The experiment in a line: gcPBM binding intensity (ln(normalized median fluorescence intensity)); higher = stronger DNA binding. An outline of the steps: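 Binding intensity values are the highest Masliner-normalised natural-log median intensity among replicate spots of either probe orientation. The binding step lasted 1 h in 1× PBS with 1% milk, 0.2 mg/ml BSA, 0.5% salmon testes DNA and 0.03% Triton X-100, using GST-tagged P. falciparum DNA-binding domains expressed in E. coli on an Agilent 4 × 180k array of primer-extended double-stranded 36-bp intergenic genomic probes plus negative controls. Alexa488 anti-GST antibody and a 488 nm scan detected bound protein.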
For “CGTTATTATACACATACACACAGGAATAAAAAATTA [CACACA_site7373]”, the “gcPBM binding intensity (ln)” value stood at 9.91.
With “ATTTTGTGTAGTGATGCATGTTATATATATATTTGA [TGCATGCA_site422]”, the “gcPBM binding intensity (ln)” value came to 9.83.
The figure for “AGAAACATATGGTAGTGTACTGTAAATTTATTCTTT [XGTACX_site8602]” is 9.76; for “TTTTATCAAATATTTATTTTATACATAAATATTTAT [XGTACX_negctrl_site528]” it is 9.74.
For CTTTTTATTTAGGAGGTGCATGTAATACGGAACATA the value was 9.35.
For “TTTTGTTTAATATTCACACATATATATTTTTTATTT [CACACA_site5496]” the value was 9.84.
As to “CATACTGTTATAAAATGTACGCATATACACACACAT [XGTACX_site7256]”, the “gcPBM binding intensity (ln)” value came out at 10.4.
In the case of “ATTTGTTATATATTCTTTTATGTTAATAATTCGAAT [CACACA_negctrl_site378]”, the “gcPBM binding intensity (ln)” value came to 9.6.
As to “TATGAATAAAAAAGAAGTACAAATTATATGAACGCA [XGTACX_site3018]”, the “gcPBM binding intensity (ln)” value worked out at 9.95.
In the case of “AAAAAATACAAACACACACACACACCCATATATATA [CACACA_site3560]”, the “gcPBM binding intensity (ln)” value was 11.
As to “AAAAAATTGACTAATGCACACAATTACAGATATATA [CACACA_site5010]”, the “gcPBM binding intensity (ln)” value is 9.89.
Consider “AAAGATAAAAAAAGTACACACACACCGATATATATA [CACACA_site9006]”, for which the “gcPBM binding intensity (ln)” value was found to be 10.6.
Turning to “CACGAACACAAACACAAACACACATCATATATATAT [CACACA_site1322]”, the “gcPBM binding intensity (ln)” value worked out at 10.1.
The figure for ACTTTAACCTGAACGGTGCATAAAATTTTGGCATTA is 9.48.
Turning to “AATATATATAAAAAGGGAAAAATATATAAATAGATA [XGTACX_negctrl_site52]”, the “gcPBM binding intensity (ln)” value stood at 9.7.
The figure for “TTTCATTAATCTAATAGTACAGAAAATTGAGAAAAA [XGTACX_site8395]” is 9.2.
For “TCTATTAATTAATATACACACATTATGTATATATAT [CACACA_site2541]”, the “gcPBM binding intensity (ln)” value was 9.82.
The figure for “GTATACAAACATATAAATATAAATGTATTATTTGTT [CACACA_negctrl_site756]” is 9.58; for “TCGTGCATAAATCATACACACACACCGATATATATA [CACACA_site8767]” it is 10.2; for “TCACAATTTTTTAGTACACACATATAAATATATAAA [CACACA_site1537]” it is 9.58.
“TTTGTATCCTTTTTGACATGCAACCATTCGGGTACA [TGCATGCA_site506]”: the “gcPBM binding intensity (ln)” value stood at 9.39.
As to “AAAAAAAAAAAAAACGCACACATTTTTACAATTCTA [CACACA_site3271]”, the “gcPBM binding intensity (ln)” value stood at 9.99.
The figure for “AAAAAATTAATAAAAACACACAAAAAAAATAAACAA [CACACA_site1907]” is 9.95.
The figure for “TTTGTTGTTTGGAGATGTACATATTTTACACTTTTT [XGTACX_site5965]” is 10.4; for “ATTTCACAGAGACACACACACAATATATTTCCTTTT [CACACA_site7773]” it is 10.3; for “TAAACATAATATTTAACACACATGAAGATGTATATT [CACACA_site1036]” it is 9.78.
With “ATAAATATTTACAAAAGTACACATAACTTTAGATAT [XGTACX_site1685]”, the “gcPBM binding intensity (ln)” value was found to be 9.6.
On to “CACCATGATACATACACACAGACATATACGCATTCA [CACACA_site1008]”, for which the “gcPBM binding intensity (ln)” value worked out at 9.9.
As for “GTTTTGGCTAACTATTCACACATTAAAATATTACCA [CACACA_site5016]”, the “gcPBM binding intensity (ln)” value was determined as 9.72.
As for “ACAATCCACAGGGGCGCACACATATAAGCAGTATAT [CACACA_site3817]”, the “gcPBM binding intensity (ln)” value turned out to be 10.
Consider “AACCGGGCCTAAGATGTAATGCCTTAGCCTATAAAA [CACACA_negctrl_site479]”, for which the “gcPBM binding intensity (ln)” value was 9.36.
For “CATAATATGACATACACACACAAAAAAAAAAAAATA [CACACA_site1285]” the value was 10.1.
“TTTATATTAAAATATTGTACGGACATTATTTTGTAA [XGTACX_site8128]”: the “gcPBM binding intensity (ln)” value came out at 9.46.
Consider “ATAAAATATATGAAGACACACATAACATCATATTTT [CACACA_site3144]”, for which the “gcPBM binding intensity (ln)” value worked out at 9.89.
For “TATTTCATTAATGTCACTTTGAAAGAAATGAAAAAA [CACACA_negctrl_site1803]” the value was 9.38; for “AAAAAAAAAAGACACACACACAAAATAAACAAACAA [CACACA_site7308]”, 10.8; for “TGTTTTTAAAAAAAAAAAAAATCACACCGGCAGGTA [CACACA_negctrl_site1437]”, 9.49.
For “TGCGTATATATATACACACACATATATATATTTTAA [CACACA_site1952]” the value was 9.89; for TATTGACATATATTAGTGCAATAATGAAATCAAGTA, 9.69.
For “CATATTATTCTTTTCACACACGCGTTAATAATAATC [CACACA_site3931]” the value was 10; for “ATACATCGTATATAAGTGCATATTAAGGTCTTAAGA [GTGCAC_site9560]”, 9.69.
“GAACATTTGAAATATGCACACATGTATAAACATACA [CACACA_site5463]”: the “gcPBM binding intensity (ln)” value came to 9.78.
For “TATATATGTATCAAGTGTACAGTTTTAAAAAAAAAA [XGTACX_site6011]” the value was 9.67.
The figure for ACACACAATACAAAAGTGCATATAATAATTAATCAT is 10.1; for “TTGTAATTATTAAACACACACAAAATATATATAATA [CACACA_site2523]” it is 10.3.
Regarding “CCATAAAAATATAATACACACATATATATTAACATA [CACACA_site4102]”, the “gcPBM binding intensity (ln)” value is 9.78.
Take “AGGTGAGCTCAGACTACACACACAAAGAAAAAAATA [CACACA_site8439]”: the “gcPBM binding intensity (ln)” value came to 10.
In the case of “AAAAAAAAAAAAAACACACACATACAGACAAAAATG [CACACA_site83]”, the “gcPBM binding intensity (ln)” value is 11.5.
With CTAAATTATAGATCAGTGCAATTTAATATGAGTCCA, the “gcPBM binding intensity (ln)” value was determined as 9.54.
The figure for “TTATCGACCAATAAAGCATGCAAAAAAAAAAAAAAA [TGCATGCA_site788]” is 9.33.
Take “CTACATAAAAAAATATGTACATATATATATATATAT [XGTACX_site667]”: the “gcPBM binding intensity (ln)” value worked out at 9.75.
Regarding “CCCACAGACAAAAACACACACAAAGGTGTTCTTATA [CACACA_site4840]”, the “gcPBM binding intensity (ln)” value turned out to be 10.
For “AAGAGAAAAAGAATGAAAGAAAAAAAAAAAAAATAT [CACACA_negctrl_site1527]” the value was 9.57; for “TTTTTAAAGGTGATAAAACACACGATTTAGAAATGT [CACACA_site3160]”, 9.67; for “GTGTTGAATTATGTGCTTTTTTCTTTCTACTCAGTA [XGTACX_negctrl_site464]”, 9.82.
Consider “TTTAATATAACTATTTGTACATAAAGAATATAAATA [XGTACX_site4594]”, for which the “gcPBM binding intensity (ln)” value came to 9.38.
As for “TAAATTTTTATTTGTAGTACTATATATATATATATA [XGTACX_site1026]”, the “gcPBM binding intensity (ln)” value came out at 9.61.
The figure for “TTTTTTTGCCATATTACACACACACGGGTAAACCCC [CACACA_site6874]” is 10.1.
The figure for “TAATGAAAATATATAACACACAAAAGTTATAAATAT [CACACA_site1189]” is 9.84; for “CCATTTAAAACATTTTGTACTTATTTTACATTTCTG [XGTACX_site4270]” it is 9.79; for “TCGACAATTTTATAAAGTACTTATTAGAAATATGAA [XGTACX_site7133]” it is 9.31.
The figure for “GATTCATTTCATAATACACACAACAAATATTTCAAA [CACACA_site120]” is 9.72.
With “AAACAAATAAAATTTATTAAAAAGGTCATATTATTA [CACACA_negctrl_site85]”, the “gcPBM binding intensity (ln)” value is 9.58.
With “AGAAAAAAAAATTATACATGCATATACGTTTATTTT [TGCATGCA_site529]”, the “gcPBM binding intensity (ln)” value is 9.66.
For “ATATTTTATATTTCTTGTACATATATTTGTAGATAT [XGTACX_site1140]” the value was 9.75; for “TTTCTTACAACAACAACAAAAAAAAATAAATAAAAT [GTGCAC_negctrl_site711]”, 9.55; for “AATTTATTTTTAAAAAGTACATACTTAAGAAAACGA [XGTACX_site3660]”, 9.46.
In the case of “TATTATTTTTTTATTCTATTAAAAAGAAAAAAATGA [CACACA_negctrl_site407]”, the “gcPBM binding intensity (ln)” value is 9.14.
For “TATATATATATATAAACACACATAAATATAAATATA [CACACA_site1121]” the value was 9.88; for “TCTTTTACAAAAGCTATAACATTCACCACATTATAA [GTGCAC_negctrl_site133]”, 9.47; for “ATATATATATTTTATGCATGTTCATTTTCTATATTT [TGCATGCA_site442]”, 9.87.
For “GTTAATGTGGTTACTTGTACATATTAACGTCTTTTT [XGTACX_site2617]” the value was 9.71.
Take ATAATATATACGTGTGTGCACATGACAAAAGCATAT: the “gcPBM binding intensity (ln)” value turned out to be 10.6.
Consider “AAAAAAAAAATATACACACACATATATATATATATA [CACACA_site3404]”, for which the “gcPBM binding intensity (ln)” value worked out at 9.84.
The figure for “ATAAAAAAAAGACACACACACATATATATATATATA [CACACA_site3073]” is 10.3.
The figure for “TAAATATATTTCATGACATGCAACTTGTTTTTTTGT [TGCATGCA_site456]” is 9.88; for “TCAACACACGTGGAATGTACTTTAGTATAAGAATTC [XGTACX_site7842]” it is 9.69; for “CAAAGGGAAATTAACACACACATATTTATATTTATA [CACACA_site7202]” it is 10.1.
Turning to “ATGTATATGATTAAATGTACGTAAACAAATTTGTAA [XGTACX_site8174]”, the “gcPBM binding intensity (ln)” value was 9.81.
The figure for “ACCACATAAAACAAATGTACTTGAAATATATGCGTA [XGTACX_site5155]” is 9.67.
For “AAGAAAACTTAAAATAAAAGCATATTTTATCTTACA [TGCATGCA_negctrl_site366]” the value was 9.36.
The figure for “TGCAGTCTGGAGAAGAGTACATAGTATCTGGTAGCT [XGTACX_site2021]” is 9.48.
Regarding “AGAGTACAAGTAAATACACACATATAGATGAAAATA [CACACA_site6635]”, the “gcPBM binding intensity (ln)” value worked out at 10.1.
Regarding “ATATATATATATATATGTACACACATCAATCATATT [XGTACX_site4005]”, the “gcPBM binding intensity (ln)” value came out at 9.89.
The figure for “TATTAATAAATTTATAAAACAGGTATATATATATAT [CACACA_negctrl_site615]” is 9.54; for “TTTTATACATAAATGTGTACGTATATATAATGAATT [XGTACX_site2762]” it is 9.6; for “TAAATATGCTCACAGATGCACTAACACATTTTTATA [GTGCAC_site9997]” it is 9.72.
The figure for “TATTGTAGAGGCAAAAGTACACATTTAATAATTTCC [XGTACX_site1151]” is 9.68; for “ATCTATATAATATATACACACAAATATACAAAAAAA [CACACA_site1013]” it is 9.86.
